What all share (assay): uncleaved DNA left, log2 of reads against the no-enzyme library (log2 ratio); higher = less cleavage (more negative = more Rep cleavage of the k-mer); sequences stand for … in CTCGTCCG…ACCGGAGA
Experiment [1] deals with T1, Rep nickase domain of Muscovy duck circovirus.
T1 sequence (Rep 1-111, printed without the tag): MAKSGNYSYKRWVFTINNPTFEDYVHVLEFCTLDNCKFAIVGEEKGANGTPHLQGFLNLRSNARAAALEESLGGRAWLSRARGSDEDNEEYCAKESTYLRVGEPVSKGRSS
The procedure: (§1)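 A pool of 90-nt single-stranded DNAs with seven random bases just before the constant AC of the nick site (name = the seven bases) was cut by 3 µM recombinant His6-SUMO-tagged Rep nickase domain (300 nM DNA, 50 mM HEPES pH 8.0, 50 mM NaCl, 1 mM MnCl2, 1 h, 37 °C, three replicates). Uncut DNA was amplified and sequenced.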

Experiment [2] has as its system T2, Rep nickase domain of banana bunchy top virus.
T2 sequence (Rep 1-94, printed without the tag): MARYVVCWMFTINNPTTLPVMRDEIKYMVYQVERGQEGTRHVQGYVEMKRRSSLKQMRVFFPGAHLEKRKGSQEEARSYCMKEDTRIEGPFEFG
On the procedure:
as §1

Experiment [3] deals with T3, Rep nickase domain of cabbage leaf curl virus.
T3 sequence (Rep 1-116, printed without the tag): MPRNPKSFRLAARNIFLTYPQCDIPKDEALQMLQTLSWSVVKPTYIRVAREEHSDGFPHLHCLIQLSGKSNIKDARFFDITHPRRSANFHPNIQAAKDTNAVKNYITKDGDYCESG
On the procedure: as §1
Experiment [4] deals with T4, Rep nickase domain of chickpea chlorotic dwarf virus.
T4 sequence (Rep 1-124, printed without the tag): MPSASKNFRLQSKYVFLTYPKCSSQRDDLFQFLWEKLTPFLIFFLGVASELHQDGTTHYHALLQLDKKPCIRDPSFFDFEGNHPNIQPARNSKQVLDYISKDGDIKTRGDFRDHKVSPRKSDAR
The procedure: as §1
Experiment [5] relates to T5, Rep nickase domain of faba bean necrotic yellows virus.
T5 sequence (Rep 1-98, printed without the tag): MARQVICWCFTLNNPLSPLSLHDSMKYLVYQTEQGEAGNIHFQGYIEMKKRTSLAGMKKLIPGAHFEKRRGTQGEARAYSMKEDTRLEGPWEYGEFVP
On the procedure:
as §1

In experiment [6] the test system is T6, Rep nickase domain of maize striate mosaic virus.
T6 sequence (Rep 1-117, printed without the tag): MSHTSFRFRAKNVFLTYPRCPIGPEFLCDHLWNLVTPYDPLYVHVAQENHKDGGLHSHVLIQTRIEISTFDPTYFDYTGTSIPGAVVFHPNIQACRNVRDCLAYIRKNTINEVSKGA
On the procedure:
as §1

Experiment [7] concerns T7, Rep nickase domain of porcine circovirus 2.
T7 sequence (Rep 2-116, printed without the tag): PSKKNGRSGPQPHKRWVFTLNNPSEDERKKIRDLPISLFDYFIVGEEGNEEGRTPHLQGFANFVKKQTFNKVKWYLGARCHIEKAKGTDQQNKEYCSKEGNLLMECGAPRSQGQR
On the procedure: as §1
Experiment [8] concerns T8, Rep nickase domain of tomato golden mosaic virus.
T8 sequence (Rep 1-124, printed without the tag): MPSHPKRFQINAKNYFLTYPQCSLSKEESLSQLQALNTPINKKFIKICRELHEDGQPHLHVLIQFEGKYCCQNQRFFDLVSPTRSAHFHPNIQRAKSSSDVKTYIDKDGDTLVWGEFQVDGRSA
The procedure: as §1
Experiment [9] has as its system T9, Rep nickase domain of tomato yellow leaf curl virus.
T9 sequence (Rep 1-136, printed without the tag): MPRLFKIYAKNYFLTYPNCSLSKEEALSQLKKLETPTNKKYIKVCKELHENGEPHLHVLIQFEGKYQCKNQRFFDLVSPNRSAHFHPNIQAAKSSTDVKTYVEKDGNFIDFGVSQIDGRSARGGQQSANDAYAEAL
On the procedure: as §1
Experiment [10] deals with T10, Rep nickase domain of wheat dwarf virus.
T10 sequence (Rep 1-137, printed without the tag): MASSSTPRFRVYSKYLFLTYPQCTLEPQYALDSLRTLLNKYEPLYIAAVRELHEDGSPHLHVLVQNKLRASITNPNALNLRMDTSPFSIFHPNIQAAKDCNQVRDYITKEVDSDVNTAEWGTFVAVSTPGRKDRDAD
On the procedure: as §1

This is one part of the list. One pool of 16,384 single-stranded DNAs met each Rep nickase domain in vitro at 3 µM enzyme and 37 °C for 1 h; the strands have 90 letters, of which the middle is given. Uncut reads are compared with the no-enzyme pool on a log2 scale; the lower, the more was cut; hits are not called. The scaling is to total reads; uncut strands gain when others are lost, and binding without cutting may add a little.

Regarding TCAGGTC, the “uncleaved DNA left (log2)” value is 0.0682 in [1]; 0.0682 in experiment [2]; 0.371 in [3]; 0.811 in experiment [4]; -0.00309 in experiment [5]; 1.17 in experiment [6]. Further, the “uncleaved DNA left (log2)” value in [7] was 0.0146; in experiment [8] it was 0.0927; in [9], -0.00331; in [10] it was -0.0218.
As to GATGGTC, the “uncleaved DNA left (log2)” value is 0.0936 in [1]; 0.0399 in [2]; 0.521 in experiment [3]; 0.859 in experiment [4]; -0.0345 in experiment [5]; 1.16 in experiment [6]. Besides, the “uncleaved DNA left (log2)” value in [7] turned out to be 0.0986; in experiment [8], 0.122; in [9], 0.023; in experiment [10], 0.167.
In the case of TCCGTAC, the “uncleaved DNA left (log2)” value in [1] was 0.0425; in experiment [2], 0.0182; in experiment [3], 0.216; in experiment [4], -0.314; in [5], 0.00866; in [6], 0.000705. Besides, the “uncleaved DNA left (log2)” value was 0.056 in experiment [7], -0.14 in [8], 0.0117 in experiment [9] and 0.0676 in experiment [10].
GAATCTT: the “uncleaved DNA left (log2)” value in experiment [1] was -2.96; in [2], -0.402; in experiment [3] it was -3.14; in [4], -2.85; in [5] it was -0.0299; in experiment [6], -1.97. Also, the “uncleaved DNA left (log2)” value was -3.28 in experiment [7], -2.92 in [8], -0.0792 in experiment [9] and -3.05 in [10].
With ACCGAAG, the “uncleaved DNA left (log2)” value in experiment [1] is -0.297; in experiment [2] it was -0.157; in [3] it was -0.876; in experiment [4], -0.365; in experiment [5], -0.0998; in experiment [6], -0.821. Besides, the “uncleaved DNA left (log2)” value was -0.0401 in experiment [7], -0.111 in [8], -0.209 in experiment [9] and -0.228 in experiment [10].
For TTTCGTC, the “uncleaved DNA left (log2)” value was 0.146 in [1]; 0.00468 in experiment [2]; 0.047 in [3]; -0.362 in [4]; 0.0865 in experiment [5]; -0.718 in [6]. In addition, the “uncleaved DNA left (log2)” value in experiment [7] is 0.0686; in [8], -0.0756; in experiment [9], 0.0476; in experiment [10], -0.0731.
Turning to GAACTCA, the “uncleaved DNA left (log2)” value in experiment [1] was -0.0296; in experiment [2], 0.0223; in experiment [3] it was 0.225; in [4], -0.56; in [5], -0.0509; in [6], 0.753. The “uncleaved DNA left (log2)” value in experiment [7] was 0.00829; in [8] it was -0.0523; in [9], -0.0108; in experiment [10], -0.00334.
Consider AAGGAAC, for which the “uncleaved DNA left (log2)” value in experiment [1] was -0.0567; in experiment [2], -0.0482; in [3] it was 0.0661; in experiment [4] it was 0.671; in experiment [5], -0.045; in [6], 0.314. In addition, the “uncleaved DNA left (log2)” value was 0.124 in experiment [7], 0.0652 in experiment [8], -0.124 in [9] and 0.00189 in [10].
Take CCGGGTA: the “uncleaved DNA left (log2)” value amounted to 0.182 in experiment [1]; 0.00978 in [2]; 0.376 in experiment [3]; 0.574 in [4]; 0.0284 in experiment [5]; 1.63 in experiment [6]. The “uncleaved DNA left (log2)” value in experiment [7] was found to be 0.0589; in experiment [8], 0.0461; in experiment [9], 0.136; in experiment [10], 0.0623.
Consider AGCGAAG, for which the “uncleaved DNA left (log2)” value was -0.0453 in experiment [1]; 0.0792 in [2]; -0.0355 in experiment [3]; 0.383 in experiment [4]; 0.077 in experiment [5]; 1.15 in experiment [6]. Further, the “uncleaved DNA left (log2)” value in [7] was determined as 0.0407; in experiment [8], 0.0832; in [9] it was 0.0631; in experiment [10], 0.0441.
As for TGTGGTA, the “uncleaved DNA left (log2)” value came to 0.184 in experiment [1]; 0.00746 in [2]; 0.282 in experiment [3]; 0.611 in experiment [4]; 0.0801 in [5]; 1.36 in experiment [6]. In addition, the “uncleaved DNA left (log2)” value in experiment [7] is 0.0222; in [8], 0.184; in experiment [9], 0.0284; in [10] it was 0.12.
For TCAATAG, the “uncleaved DNA left (log2)” value in experiment [1] was 0.0677; in experiment [2], -0.0316; in experiment [3], -0.722; in experiment [4] it was -0.714; in experiment [5], -0.00578; in [6], -1.31. In addition, the “uncleaved DNA left (log2)” value in experiment [7] is 0.179; in [8], -0.0857; in experiment [9], 0.0461; in experiment [10] it was 0.0194.
As for GCATTGC, the “uncleaved DNA left (log2)” value in experiment [1] is 0.0138; in experiment [2], -0.0591; in [3] it was -0.605; in experiment [4] it was 0.737; in [5], -0.0614; in experiment [6], -0.323. In addition, the “uncleaved DNA left (log2)” value is 0.0903 in experiment [7], -0.0452 in [8], 0.0383 in experiment [9] and -0.175 in experiment [10].
As to ACAATCG, the “uncleaved DNA left (log2)” value was 0.0747 in experiment [1]; 0.0442 in [2]; -0.478 in [3]; 0.87 in [4]; 0.128 in experiment [5]; -0.124 in experiment [6]. In addition, the “uncleaved DNA left (log2)” value in [7] is 0.243; in [8], -0.0075; in [9], 0.0975; in [10] it was 0.0411.
